The supplement of paper PMC3334620
The full ranking holds about 33,000 sequences; the median of “E-score (-0.5 to 0.5)” is about -0.053, and the highest 2% start at about 0.37. The list shows a part of the results.

These sequences were tested against Hap1 (UniProt P0CE41) (assay: PBM E-score (8-mer binding enrichment) (E-score (-0.5 to 0.5)); higher = stronger / more preferred TF binding; most listed sequences are background and not binding sites). Settings: protein concentration: 200 nM; construct: GST-DNA-binding domain.
UniProt P0CE41, sequence (P0CE41 whole entry, the tested form may be a part): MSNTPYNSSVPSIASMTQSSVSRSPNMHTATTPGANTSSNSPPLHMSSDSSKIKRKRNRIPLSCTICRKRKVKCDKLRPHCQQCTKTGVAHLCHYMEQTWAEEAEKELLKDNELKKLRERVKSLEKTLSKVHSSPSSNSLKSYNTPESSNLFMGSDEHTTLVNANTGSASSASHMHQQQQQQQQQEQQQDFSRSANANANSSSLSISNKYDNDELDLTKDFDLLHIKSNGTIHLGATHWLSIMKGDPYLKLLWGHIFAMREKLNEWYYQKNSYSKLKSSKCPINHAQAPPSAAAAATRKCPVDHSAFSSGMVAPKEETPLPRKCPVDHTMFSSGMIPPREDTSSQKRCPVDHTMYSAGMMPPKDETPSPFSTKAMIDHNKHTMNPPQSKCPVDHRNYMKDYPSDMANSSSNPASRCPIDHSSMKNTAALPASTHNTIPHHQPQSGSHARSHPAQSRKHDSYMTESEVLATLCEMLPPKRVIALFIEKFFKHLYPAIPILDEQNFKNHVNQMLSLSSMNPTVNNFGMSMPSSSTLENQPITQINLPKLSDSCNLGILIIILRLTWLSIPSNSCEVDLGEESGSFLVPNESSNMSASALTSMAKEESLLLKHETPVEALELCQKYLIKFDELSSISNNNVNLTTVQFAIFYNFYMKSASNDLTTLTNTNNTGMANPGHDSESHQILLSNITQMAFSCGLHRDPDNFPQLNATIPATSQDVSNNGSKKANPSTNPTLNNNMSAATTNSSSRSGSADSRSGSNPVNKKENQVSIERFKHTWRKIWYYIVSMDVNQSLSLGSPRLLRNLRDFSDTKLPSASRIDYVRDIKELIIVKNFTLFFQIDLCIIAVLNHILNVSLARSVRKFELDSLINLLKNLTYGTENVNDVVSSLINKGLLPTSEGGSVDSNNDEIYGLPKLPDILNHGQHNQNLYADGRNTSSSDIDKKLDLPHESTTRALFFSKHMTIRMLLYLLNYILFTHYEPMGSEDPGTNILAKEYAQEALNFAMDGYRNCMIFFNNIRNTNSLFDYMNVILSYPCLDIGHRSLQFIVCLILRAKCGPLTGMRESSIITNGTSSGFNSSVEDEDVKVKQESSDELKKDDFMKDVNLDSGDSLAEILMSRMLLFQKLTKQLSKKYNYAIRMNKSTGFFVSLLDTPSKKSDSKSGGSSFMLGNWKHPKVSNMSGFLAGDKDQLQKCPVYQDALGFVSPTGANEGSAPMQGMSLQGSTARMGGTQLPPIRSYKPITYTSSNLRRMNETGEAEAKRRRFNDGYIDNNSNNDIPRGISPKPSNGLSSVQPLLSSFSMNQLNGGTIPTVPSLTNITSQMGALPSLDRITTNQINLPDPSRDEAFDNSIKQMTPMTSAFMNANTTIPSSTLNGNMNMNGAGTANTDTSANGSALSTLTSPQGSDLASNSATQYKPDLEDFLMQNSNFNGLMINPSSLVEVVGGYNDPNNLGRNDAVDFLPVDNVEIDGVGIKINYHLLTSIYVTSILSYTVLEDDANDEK
Method in brief: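 Using PURExpress in vitro transcription/translation, GST-tagged yeast transcription factors were made in full-length or DNA-binding-domain form. These were applied at about 100-200 nM to double-stranded universal all-10-mer Agilent arrays, and bound protein was detected with fluorescent anti-GST. Scans were normalised with masliner before the Universal PBM Analysis Suite assigned E-scores to ungapped eight-base words pooled with their reverse complements.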

Sequence | PBM E-score
GTTTCTCA | -0.102
TAGAGGCA | -0.304
CACCATCA | -0.22
AAGCTGGA | -0.144
AACTGGTG | -0.28
AGATACGG | 0.144
TAAAGGGA | -0.153
AAGTCCGA | 0.467
GATATAGC | 0.235
CACCATAA | -0.0857
TACCAGCA | -0.0959
ATCATTCG | 0.0233
GGGAGCAC | 0.0847
AGGTGTGG | -0.00938
ACCTGTGA | -0.149
GTCTAGGA | -0.281
GTATTTTA | -0.155
AGATGGCG | -0.0276
ACTTATAA | 0.0433
TCTGAGAA | -0.245
ATAAGTCA | -0.0919
CAAGCCCG | 0.182
AGTAGCAG | -0.173
ATCGCGAG | 0.119
GAAGTTAC | 0.0894

Sequence | PBM E-score
GATTGTAC | 0.0804
CCAATACA | -0.239
TCATGAGA | -0.164
CAAAGGAG | -0.137
CATGACGA | -0.0159
GACGGCCA | 0.0206
ATAAAGAG | -0.194
AAACGTGT | -0.104
CACTGATG | -0.289
GCGCCGTA | 0.222
CAAGCCGC | -0.0838
GCTTTGTA | -0.0892
ATTGCATG | -0.0278
CCCTGCCC | -0.215
AGTAAATG | 0.078
AACGATCC | -0.0248
ACTTTGAG | -0.228
ACGGTACA | -0.122
AATGGTCG | -0.0147
AAGGGGGT | -0.253
CAGTCCTC | -0.123
ATCCCGTC | 0.0828
CGTCCCTC | -0.256
CCGTTTCC | 0.199
AAGTGGCT | -0.0157

Sequence | PBM E-score
GCAGACTA | -0.309
CATGTTCG | -0.00257
GGGATGGA | 0.0825
TAACGTGA | -0.306
CCGAAAGC | 0.369
CGAAAAAA | 0.145
ATCCCAGC | 0.0523
CTTACCTC | 0.0631
ACGCTGCG | -0.0275
AAGTAGTC | -0.0371
CAAGGCCG | 0.123
CGCTGCAG | -0.0283
TCAGAGGA | -0.157
AGCCACTC | -0.151
GGCATAGA | -0.00684
GATGTTAC | 0.0459
CGAACCAA | 0.0309
AAAGTTCG | 0.083
GGACTTAA | 0.443
AAAATCAC | -0.0485
CCCGCGAG | 0.179
AAGGTGAA | -0.0166
AGTCAAGA | -0.26
ATTTGCTA | -0.0549
AAAATTTT | 0.212

Sequence | PBM E-score
AACCGTAG | -0.0665
GTAGAAAC | 0.0346
CCTCAACA | -0.0823
CGCTCAAG | -0.136
TCCCAACA | -0.206
CGAAGCAA | -0.112
ACCCAGTC | -0.00985
CACACTGC | -0.0318
CAGTTCCA | -0.0865
AGTCCTAT | -0.0943
ATGTGCCA | -0.302
CCTATCCC | 0.122
AATTACAG | 0.0274
CTTAAAGC | 0.12
ATCCTGAG | -0.182
CCACTGGA | -0.132
AACGTGAT | -0.272
CCATGGCG | 0.102
CCGATTGA | 0.181
AAATTTTA | -0.22
GCGCCACA | -0.19
AGACGCCC | 0.136
CCAAAATC | -0.0233
CTTCACGC | 0.0443
CACAGTGC | 0.00378

Sequence | PBM E-score
CTCCCGAA | 0.0966
ATCCACTA | -0.0975
AACTCAGA | -0.17
AAAATGCA | -0.131
CCTTTCCG | 0.239
GCCTTTCC | 0.112
GCATATCA | 0.0762
GCGTTAAA | 0.123
AAACCAAT | 0.0157
GGAAACCC | 0.226
AGCAGTAT | -0.202
GGGGAGAC | 0.0358
AACGTATT | -0.0293
CAGCTAAA | -0.0463
CAACATGA | -0.0313
GATCCGCA | 0.253
CCCGCATC | 0.0799
CGAACGAC | 0.0153
CCTGACAA | -0.227
AGGCTGTC | -0.089
TACGGCAA | 0.108
CCAGGGTC | -0.126
CCATAGTC | -0.115
ACAATGGT | -0.238
GAATGGTC | 0.0013

Sequence | PBM E-score
AAGCGATT | -0.016
ATTCCAGG | -0.131
AACCCCAA | 0.0187
ACCTGTAC | -0.0444
CCCGTCCA | 0.0596
AGACCTCG | 0.0209
GATAAGTA | 0.0954
CGAGATCA | 0.0352
CCACTCCA | -0.188
CATTGCCA | -0.127
TCAAGCAA | -0.152
AGCCGACG | 0.234
CTTCGGGA | 0.277
CCGCGTGA | 0.111
AGTACCTG | -0.151
CCATTCTA | -0.222
ACTTCGTG | -0.184
CGAAAATC | 0.0345
TATCGTCA | -0.0513
ACGCGGCT | -0.00618
AGCTACAT | -0.123
GTAACCAA | 0.0669
ACTTTCAA | 0.0743
GATAAGAC | 0.0477
GCCTGCGC | -0.0989

Sequence | PBM E-score
ACACCGGA | 0.395
GACGTAAA | 0.116
CAGGTGTA | -0.199
GCGCGGAA | 0.28
GCTGCGTA | -0.364
GAAGGGCC | -0.156
GTCCAATA | 0.0873
GAGACGCA | 0.0319
CAGTGAAC | -0.195
CTATAAGC | 0.0118
AAGAAAAT | -0.0323
CAGGTACG | -0.0992
CGCAATCA | 0.117
CATGCGGG | 0.0552
AGGCGGGA | -0.0314
CAAGCGTC | -0.181
ATGGCTAC | -0.296
GAGACATC | 0.137
GACTACTA | -0.171
ACTTAAAT | -0.178
ACTGTAAG | -0.0778
TATAGTGA | -0.235
GTGTTAAC | -0.0743
TCGTAGCA | -0.149
CGCCCACC | -0.146

Sequence | PBM E-score
GGAGAGAC | 0.101
AGCTTGTA | -0.272
GCCCTACA | -0.0469
ACTTAGAC | -0.115
ATAAAGAT | -0.0806
CCCTATCG | 0.155
ATTCCGAA | 0.375
ATGGGAAC | -0.142
ACTTAGTC | -0.00216
CGTCCTTC | -0.0208
TCTAGCAA | -0.0384
CGTATAGA | -0.188
AGAAAGGC | -0.116
GCATCTAA | 0.171
CACGGAAC | 0.28
GGACACAA | 0.138
CAGTCGCG | -0.0131
CATCATAG | -0.109
CCTACCAC | -0.0291
ATAGCGGG | 0.168
ACGCAGTA | -0.0558
GGATGTCA | 0.0609
CCGTGAGA | 0.0735
CTCTGCTA | -0.177
CACGTTTC | -0.0464

Sequence | PBM E-score
ATCACTGG | -0.17
ATGCTCAA | -0.119
ATCTTGCG | 0.071
CATCCAGA | -0.186
CCACACAA | -0.294
CGTGGTGA | -0.104
ACTAGCAA | -0.0991
CGGCGCGA | 0.278
AGCCCACT | -0.19
ACCCGATA | 0.439
CTTGTAGC | -0.145
ACGCGGAC | 0.331
GCTGGTAC | 0.0706
CCACGCCA | -0.308
GTCGTAGA | -0.175
AGCCCCCT | -0.251
CCGGGTCG | 0.291
CGGCAAGA | 0.0997
ACGGTGCT | 0.00635
GGCACTAA | 0.163
ACCGGATG | 0.329
AGGATGAT | -0.204
CGACGCGA | 0.0265
GGCTCAGA | -0.0798
GGCATCCC | -0.0619

Sequence | PBM E-score
GAGTGTTA | -0.078
ACTTTGAT | -0.205
AAAGTACA | -0.223
AGCCGTCC | 0.105
ACATCCAC | -0.0519
AAAAATAG | -0.0154
AATGGTAC | -0.122
GGTGCTGA | 0.111
AGCTCCTA | 0.0713
CTATGCGC | 0.0954
AGTAAGCA | -0.286
CAACCTTC | -0.0289
GCTTTTCC | 0.175
TCTCGCAA | -0.0649
GAGCATCA | -0.133
GAGGGCTA | -0.259
TCTGATCA | -0.0745
GGGATGCA | 0.0127
ACAATCTA | -0.186
CATCTGGG | -0.325
GCTTAGCC | 0.0506
CGCACACC | 0.0349
ACGGCTTA | 0.169
AGACACGA | -0.00421
ATCTACCG | 0.178

Sequence | PBM E-score
TGACTGAA | -0.245
AACTAGAG | -0.292
ACTAGAGG | -0.1
GGGAGCGA | -0.125
GATCTAAA | 0.0348
ATCACTCA | -0.111
CCGAGTGA | 0.261
GATACTCA | 0.143
GACTCGCC | 0.0129
ACAACACG | 0.0134
TTAGGCAA | -0.167
CCATACGG | 0.186
AATTACAA | -0.269
AGATTTAT | 0.192
AACATAAA | -0.115
GGGGACGA | -0.0152
AAACTTCT | 0.146
GGCAAGCC | -0.0221
AAGGACAA | -0.0277
AATTTGTG | 0.0108
CCGGCTAA | 0.331
CTGGGACA | -0.243
AACGCACT | -0.0698
TAGCGCAA | -0.0472
GCGTATTA | 0.031

Sequence | PBM E-score
GTAGCGCA | 0.0264
AGTACGCC | 0.0273
ACGGTCTC | 0.141
ATTAGTCG | 0.0282
CACATCAG | -0.0587
GGGTAGTA | 0.0782
CGGCTTAG | 0.229
ACTCCCTA | -0.252
CCTAACAC | 0.139
AGCGCCGC | 0.177
AATGCCGA | 0.405
CACCCGAA | 0.267
GTCGTCGA | -0.121
GGCGAAAA | 0.145
AGCAGAGA | -0.248
ACGAAATG | -0.0873
GCATTTAA | 0.223
CCATCGCG | 0.224
GAAGTCCA | -0.0583
AGAAGGCA | -0.201
CCGAGCAC | 0.287
GCCCAGGA | 0.0232
GCGGCAGC | -0.115
TAACTATA | -0.14
GACTAGCA | -0.0979

Sequence | PBM E-score
AATCGAAT | -0.035
ACGCTGTA | -0.134
CTTTAGAA | 0.0707
ACGTAGGA | -0.134
CTGCCGCA | -0.137
CTATAATC | -0.101
CACCACAC | -0.0184
CGTGACAG | -0.0536
ATCCGACA | 0.305
AGCGCGGG | 0.0832
CCGAAGCA | 0.21
CAACATTG | 0.0423
CATGTAGA | -0.188
GCTGGATA | -0.098
ATCTGCAC | -0.0358
AGACGATG | -0.0493
GACTTTCC | 0.165
GATGCCAC | -0.127
AGTTTCGC | -0.0105
ACCTTAAC | 0.0996
GGTGTATA | -0.0843
AACCGTCC | 0.13
ACCAGCCC | 0.14
ATTAAGAG | -0.0483
GACTTACA | -0.23

Sequence | PBM E-score
CACTAGTA | -0.164
GATGCCTA | -0.185
GCGGTGCC | 0.0757
ACCAGGCC | -0.0592
TAAATCGA | -0.0466
GAGGAAAC | 0.0978
CAGTGGGG | -0.227
CCCGCTAA | 0.326
AACAGATA | -0.0562
ACCTATAA | -0.0286
CTGCTGTC | -0.0121
ATCGAGTC | -0.156
GCGTCCTA | -0.173
CCCGGCCG | 0.405
CATACATC | -0.157
GGGTACCC | 0.0266
CAAAGCCA | -0.17
AATACTGG | -0.0493
CCCAGCAC | -0.0339
